# Source: the supplement of paper PMC8728848
# The other results are listed elsewhere or left out.
# B1: PX9961C-bth-497-22-497 (Bacteroides thetaiotaomicron) (protein)
# chain: DWLDLNTTSSVETGQAIVTLDDAQIALNGIYRLASGHSYYGDNYWYYGDCRAADVQARITKGDGKRVSPYYEYNVLASDNLNIVLPWNTVYKVIRQTNNLIQKIESGSIQSSDTKELNRIKSEALVMRGLSLFNLTRLFGMPYTNDKGASLGVPIETSPSDPTHKPSRSTVAQCYEQVVSDMSNALSGLRQETSNGYINYWAAQALLSRVYLNMGEYQKAYDAATDVIKNNGGRYQLYSYEEYPNVWGQDFQSESLFELYITLSEPSGGTGGEGAPMVYANEATVDWNNLILSEDFLNLLNEDPKDVRHCLTKESVIENNTGLPAAAMHEKVYLAKFPGKTGDDPKTNNICIIRLSEVYLNAAEAGLKKGTDIEEAQGYLNDIISRRTTDTSQQVSTETFTLDRILKERRKELVGEGEVFYDYLRNGLAIERKGSWHLETLKASNAQKIEATDLRIALPIPQSEIDANPNIQQNPR
# How the values were obtained:
# Assay in all cases: glycan array binding signal (z-score within array); higher = stronger binding
# Settings in all cases: glycan notation: IUPAC condensed, linker removed
# [1] = molecular target: Neu5Ac(a2-6)Gal(b1-3)GlcNAc(b1-3)[Gal(b1-4)GlcNAc(b1-6)]Gal(b1-4)Glc
# Procedure, shortened: (§1)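 The binding signal is a Z-score computed within each array and averaged over linkers. Arrays of the same protein sequence at different concentrations or buffers were also averaged together. Data originate from 3228 arrays in the Consortium for Functional Glycomics database, kept only where the protein sequence was available.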
# Neu5Ac(a2-6)Gal(b1-4)Glc = molecular target: Neu5Ac(a2-6)Gal(b1-4)Glc
# Procedure, shortened: as §1
# [2] = molecular target: Neu5Ac(a2-6)Gal(b1-4)GlcNAc
# Procedure, shortened: as §1
# [3] = molecular target: Neu5Ac(a2-6)Gal(b1-4)GlcNAc(b1-2)Man
# Procedure, shortened: as §1
# [4] = molecular target: Neu5Ac(a2-6)Gal(b1-4)GlcNAc(b1-2)Man(a1-3)Man(b1-4)GlcNAc(b1-4)GlcNAc
# Procedure, shortened: as §1
# [5] = molecular target: Neu5Ac(a2-6)Gal(b1-4)GlcNAc(b1-2)Man(a1-3)[Gal(b1-4)GlcNAc(b1-2)Man(a1-6)]Man(b1-4)GlcNAc(b1-4)GlcNAc
# Procedure, shortened: as §1
# [6] = molecular target: Neu5Ac(a2-6)Gal(b1-4)GlcNAc(b1-2)Man(a1-3)[GlcNAc(b1-2)Man(a1-6)]Man(b1-4)GlcNAc(b1-4)GlcNAc
# Procedure, shortened: as §1
# [7] = molecular target: Neu5Ac(a2-6)Gal(b1-4)GlcNAc(b1-2)Man(a1-3)[GlcNAc(b1-4)][Neu5Ac(a2-6)Gal(b1-4)GlcNAc(b1-2)Man(a1-6)]Man(b1-4)GlcNAc(b1-4)GlcNAc
# Procedure, shortened: as §1
# [8] = molecular target: Neu5Ac(a2-6)Gal(b1-4)GlcNAc(b1-2)Man(a1-3)[Man(a1-6)]Man(b1-4)GlcNAc(b1-4)GlcNAc
# Procedure, shortened: as §1
# [9] = molecular target: Neu5Ac(a2-6)Gal(b1-4)GlcNAc(b1-2)Man(a1-3)[Neu5Ac(a2-3)Gal(b1-4)GlcNAc(b1-2)Man(a1-6)]Man(b1-4)GlcNAc(b1-4)GlcNAc
# Procedure, shortened: as §1
# [10] = molecular target: Neu5Ac(a2-6)Gal(b1-4)GlcNAc(b1-2)Man(a1-3)[Neu5Ac(a2-6)Gal(b1-4)GlcNAc(b1-2)Man(a1-6)]Man(b1-4)GlcNAc(b1-4)GlcNAc
# Procedure, shortened: as §1
# [11] = molecular target: Neu5Ac(a2-6)Gal(b1-4)GlcNAc(b1-2)Man(a1-3)[Neu5Ac(a2-6)Gal(b1-4)GlcNAc(b1-2)Man(a1-6)]Man(b1-4)GlcNAc(b1-4)[Fuc(a1-6)]GlcNAc
# Procedure, shortened: as §1
# [12] = molecular target: Neu5Ac(a2-6)Gal(b1-4)GlcNAc(b1-2)Man(a1-6)Man(b1-4)GlcNAc(b1-4)GlcNAc
# Procedure, shortened: as §1
# [13] = molecular target: Neu5Ac(a2-6)Gal(b1-4)GlcNAc(b1-2)Man(a1-6)[Gal(b1-4)GlcNAc(b1-2)Man(a1-3)]Man(b1-4)GlcNAc(b1-4)GlcNAc
# Procedure, shortened: as §1
# [14] = molecular target: Neu5Ac(a2-6)Gal(b1-4)GlcNAc(b1-2)Man(a1-6)[GlcNAc(b1-2)Man(a1-3)]Man(b1-4)GlcNAc(b1-4)GlcNAc
# Procedure, shortened: as §1
# [15] = molecular target: Neu5Ac(a2-6)Gal(b1-4)GlcNAc(b1-2)Man(a1-6)[Man(a1-3)]Man(b1-4)GlcNAc(b1-4)GlcNAc
# Procedure, shortened: as §1
# [16] = molecular target: Neu5Ac(a2-6)Gal(b1-4)GlcNAc(b1-2)[Neu5Ac(a2-6)Gal(b1-4)GlcNAc(b1-4)]Man(a1-3)[GlcNAc(b1-4)][Neu5Ac(a2-6)Gal(b1-4)GlcNAc(b1-2)[Neu5Ac(a2-6)Gal(b1-4)GlcNAc(b1-6)]Man(a1-6)]Man(b1-4)GlcNAc(b1-4)GlcNAc
# Procedure, shortened: as §1
# [17] = molecular target: Neu5Ac(a2-6)Gal(b1-4)GlcNAc(b1-2)[Neu5Ac(a2-6)Gal(b1-4)GlcNAc(b1-4)]Man(a1-3)[GlcNAc(b1-4)][Neu5Ac(a2-6)Gal(b1-4)GlcNAc(b1-4)Man(a1-6)]Man(b1-4)GlcNAc(b1-4)GlcNAc
# Procedure, shortened: as §1
# [18] = molecular target: Neu5Ac(a2-6)Gal(b1-4)GlcNAc(b1-2)[Neu5Ac(a2-6)Gal(b1-4)GlcNAc(b1-6)]Man(a1-6)[Neu5Ac(a2-6)Gal(b1-4)GlcNAc(b1-2)Man(a1-3)][GlcNAc(b1-4)]Man(b1-4)GlcNAc(b1-4)GlcNAc
# Procedure, shortened: as §1
# [19] = molecular target: Neu5Ac(a2-6)Gal(b1-4)GlcNAc(b1-3)Gal(b1-3)GlcNAc
# Procedure, shortened: as §1
# [20] = molecular target: Neu5Ac(a2-6)Gal(b1-4)GlcNAc(b1-3)Gal(b1-4)GlcNAc
# Procedure, shortened: as §1
# [21] = molecular target: Neu5Ac(a2-6)Gal(b1-4)GlcNAc(b1-3)Gal(b1-4)GlcNAc(b1-2)Man(a1-3)[Neu5Ac(a2-6)Gal(b1-4)GlcNAc(b1-3)Gal(b1-4)GlcNAc(b1-2)Man(a1-6)]GalNAc
# Procedure, shortened: as §1
# [22] = molecular target: Neu5Ac(a2-6)Gal(b1-4)GlcNAc(b1-3)Gal(b1-4)GlcNAc(b1-3)Gal(b1-4)GlcNAc
# Procedure, shortened: as §1
# [23] = molecular target: Neu5Ac(a2-6)Gal(b1-4)GlcNAc(b1-3)Gal(b1-4)GlcNAc(b1-3)Gal(b1-4)GlcNAc(b1-2)Man(a1-3)[Neu5Ac(a2-6)Gal(b1-4)GlcNAc(b1-3)Gal(b1-4)GlcNAc(b1-3)Gal(b1-4)GlcNAc(b1-2)Man(a1-6)]GalNAc
# Procedure, shortened: as §1
# [24] = molecular target: Neu5Ac(a2-6)Gal(b1-4)GlcNAc(b1-3)Gal(b1-4)GlcNAc(b1-3)GalNAc
# Procedure, shortened: as §1
# [25] = molecular target: Neu5Ac(a2-6)Gal(b1-4)GlcNAc(b1-3)Gal(b1-4)GlcNAc(b1-3)[Neu5Ac(a2-6)Gal(b1-4)GlcNAc(b1-3)Gal(b1-4)GlcNAc(b1-6)]GalNAc
# Procedure, shortened: as §1
# [26] = molecular target: Neu5Ac(a2-6)Gal(b1-4)GlcNAc(b1-3)Gal(b1-4)GlcNAc(b1-6)[Gal(b1-3)]GalNAc
# Procedure, shortened: as §1
# [27] = molecular target: Neu5Ac(a2-6)Gal(b1-4)GlcNAc(b1-3)Gal(b1-4)[Fuc(a1-3)]GlcNAc(b1-3)Gal(b1-4)[Fuc(a1-3)]GlcNAc
# Procedure, shortened: as §1
# [28] = molecular target: Neu5Ac(a2-6)Gal(b1-4)GlcNAc(b1-3)GalNAc
# Procedure, shortened: as §1
# [29] = molecular target: Neu5Ac(a2-6)Gal(b1-4)GlcNAc(b1-3)[Neu5Ac(a2-6)Gal(b1-4)GlcNAc(b1-6)]GalNAc
# Procedure, shortened: as §1
# [30] = molecular target: Neu5Ac(a2-6)Gal(b1-4)GlcNAc(b1-6)GalNAc
# Procedure, shortened: as §1
# [31] = molecular target: Neu5Ac(a2-6)Gal(b1-4)GlcNAc(b1-6)[Gal(b1-3)GlcNAc(b1-3)]Gal(b1-4)Glc
# Procedure, shortened: as §1
# [32] = molecular target: Neu5Ac(a2-6)Gal(b1-4)GlcNAc(b1-6)[Gal(b1-3)]GalNAc
# Procedure, shortened: as §1
# [33] = molecular target: Neu5Ac(a2-6)Gal(b1-4)GlcNAc6S
# Procedure, shortened: as §1
# Neu5Ac(a2-6)GalNAc = molecular target: Neu5Ac(a2-6)GalNAc
# Procedure, shortened: as §1
# [34] = molecular target: Neu5Ac(a2-6)GalNAc(b1-4)GlcNAc
# Procedure, shortened: as §1
# [35] = molecular target: Neu5Ac(a2-6)GalNAc(b1-4)GlcNAc6S
# Procedure, shortened: as §1
# [36] = molecular target: Neu5Ac(a2-6)GlcNAc(b1-4)GlcNAc
# Procedure, shortened: as §1
binder,measurement,setting,value
B1,glycan array binding signal (z-score),[1],-0.627
same,glycan array binding signal (z-score),Neu5Ac(a2-6)Gal(b1-4)Glc,-0.447
same,glycan array binding signal (z-score),[2],-0.122
same,glycan array binding signal (z-score),[3],-0.411
same,glycan array binding signal (z-score),[4],-0.302
same,glycan array binding signal (z-score),[5],-0.066
same,glycan array binding signal (z-score),[6],-0.304
same,glycan array binding signal (z-score),[7],-0.255
same,glycan array binding signal (z-score),[8],-0.007
same,glycan array binding signal (z-score),[9],0.593
same,glycan array binding signal (z-score),[10],-0.348
same,glycan array binding signal (z-score),[11],-0.505
same,glycan array binding signal (z-score),[12],0.089
same,glycan array binding signal (z-score),[13],-0.338
same,glycan array binding signal (z-score),[14],-0.282
same,glycan array binding signal (z-score),[15],0.075
same,glycan array binding signal (z-score),[16],0.274
same,glycan array binding signal (z-score),[17],0.553
same,glycan array binding signal (z-score),[18],0.254
same,glycan array binding signal (z-score),[19],-0.423
same,glycan array binding signal (z-score),[20],0.866
same,glycan array binding signal (z-score),[21],-0.197
same,glycan array binding signal (z-score),[22],-0.506
same,glycan array binding signal (z-score),[23],0.689
same,glycan array binding signal (z-score),[24],-0.389
same,glycan array binding signal (z-score),[25],0.127
same,glycan array binding signal (z-score),[26],0.239
same,glycan array binding signal (z-score),[27],0.365
same,glycan array binding signal (z-score),[28],-0.051
same,glycan array binding signal (z-score),[29],-0.532
same,glycan array binding signal (z-score),[30],-0.533
same,glycan array binding signal (z-score),[31],-0.065
same,glycan array binding signal (z-score),[32],0.076
same,glycan array binding signal (z-score),[33],-0.304
same,glycan array binding signal (z-score),Neu5Ac(a2-6)GalNAc,-0.449
same,glycan array binding signal (z-score),[34],-0.198
same,glycan array binding signal (z-score),[35],-0.05
same,glycan array binding signal (z-score),[36],-0.069
